± gives the standard deviation. Only a part is listed here, and it is no random draw.
test system: MIWI (PIWIL1) piRISC loaded with piRNA #1 (30 nt); assay: pre-steady-state target cleavage rate (min^-1); MIWI and MILI are mouse PIWI proteins and EfPiwi is from a freshwater sponge; tags in brackets are library labels; higher = faster piRNA-guided slicing of the target; details: guide: piRNA #1 5'p-UGAGGUAGUAGGUUGUAUAGUAUCCAGAGG; auxiliary factor: 500 nM mouse GTSF1
In short: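 A burst-and-steady-state fit was used to obtain the pre-steady-state cleavage rate. The input data were sequencing reads of uncleaved targets, normalised to depth and to weakly complementary targets, from a […] transcribed, DNA-blocked target RNA library mixed with 1 nM active affinity-purified piRISC holding one synthetic guide, with or without 500 nM GTSF1 partner protein, in HEPES–potassium acetate buffer at 33 °C for 0–8 or 0–960 min. Three trials were pooled and k3 was capped at 0.0001 min^-1.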
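Also: 1 nM active piRISC with 0.1 nM target library at 33 °C single turnover.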

Row | Sequence | pre-steady-state target cleavage rate
1 | GGAGUGGAUACUAUACGACCUACUACCUCA | 1.44 ± 0.079
2 | CCUCUCGAUACUAUUCAACCUACUACCUCA | 2.27 ± 0.15
3 | GGAGACGAUACUAUAGCAACCUACUACCUCA | 0.84 ± 0.093
4 | GGAGACCUAACUAUUCAACCUACUAGCUCA | 0.152 ± 0.027
5 | GGAGACCUAACAAUAGAACCUACUACCUCA | 0.00656 ± 0.0032
6 | GGAGACCUAACUAUACAACCUUCUACCUCA | 0.206 ± 0.021
7 | GGAGACCUAUGUAUACAACCUACAUACCUCA | 0.0147 ± 0.0034
8 | GGAGACCUUACUAUACACCUACUACCUCA | 0.00373 ± 0.0025
9 | GGAGACCAUACUAUACAAUCUACUACCUCA | 0.404 ± 0.024
10 | GCUCAGGAUACUAUACAACGUACUACCUCA | 0.999 ± 0.052
11 | GCUCUGGAUACUAUACAACCCACUACCUCA | 0.84 ± 0.034
12 | GCUCUGGAUACUACACAACCUACUACCUCA | 1.89 ± 0.095
13 | GGUCUCGAUACUAUACAACCUUCUACCUCA | 0.707 ± 0.036
14 | GGAGACGAUAGUAUACAACCAACUACCUCA | 0.135 ± 0.016
15 | GGUCAGGAUACAAUACAACCUACUACCUCA | 1.69 ± 0.1
16 | CGUCUGGAUAGUAUACAACCUACUACCUCA | 0.381 ± 0.044
17 | GGAGACCUAACUAUACAACCUAGUAGCUCA | 0.00642 ± 0.0045
18 | CCUCUCGAUACUAUACAACCUACAACCUCA | 1.34 ± 0.077
19 | GGUCUGGAUACUAUACAACCUACUACCGCA | 0.374 ± 0.035
20 | GGAGUGGAUACUAUACUACCUACUACCUCA | 1.25 ± 0.077

Row | Sequence | pre-steady-state target cleavage rate
21 | GGAGUGGAUACUAUACAAGCUUCUACCUCA | 0.152 ± 0.013
22 | GGAGUGGAUACUAUACUACCUACUACCACA | 0.757 ± 0.08
23 | GGACUGCAUUCUAUACAACCUACUACCUCA | 1.2 ± 0.12
24 | CCUCUGGAUACUAUACAACCUACGACCUCA | 1.37 ± 0.093
25 | GGAGAGGAAACUAUACAAGCUACUACCUCA | 0.438 ± 0.034
26 | GGAGACCAUACUAUACUACCUACUACCUGA | 0.472 ± 0.04
27 | GGAGACCUAAGUAUACAUCCUACUACCUCA | 0.0391 ± 0.0087
28 | GGAGACCUAUCUAUACAACCUACUACGUCA | 0.667 ± 0.053
29 | GGAGAGGAUACUAUACAACCAACUACGUCA | 0.0794 ± 0.0087
30 | GGACUGGUUACUUUACAACCUACUACCUCA | 1.23 ± 0.14
31 | GGAGACCUAUCUAUACAUCCUACUACCUCA | 0.47 ± 0.042
32 | GGAGUGGUUAGUAUACAACCUACUACCUCA | 0.605 ± 0.047
33 | GGAGACCUUUCUAUACUACCUACUACCUCA | 0.0884 ± 0.01
34 | GCUCUGGAUACUAUACAAGCUACUACCUCA | 1.4 ± 0.06
35 | GGAGACCUUACUAUACAACCUAGUACCUGA | 0.00911 ± 0.005
36 | GGAGUGGAUGCUAUACAACCUACUACCUCA | 1.7 ± 0.13
37 | GGAGAGCAUACUUUACAACCUACUACCUCA | 1.21 ± 0.089
38 | GGUCUGGAUACAAUACAACCUACUACCUGA | 0.664 ± 0.093
39 | GGAGAGGAUACUAUACACCUACUACCUCA | 0.279 ± 0.026
40 | GCUCUGGAUACUAUACAACCUCACUACCUCA | 0.00381 ± 0.0028

— the supplement of paper PMC10338343
